The list shows a part of the results.
T1: UNK ZnF1-3 (human, UniProt Q9C0B0 31-174)
T1 sequence: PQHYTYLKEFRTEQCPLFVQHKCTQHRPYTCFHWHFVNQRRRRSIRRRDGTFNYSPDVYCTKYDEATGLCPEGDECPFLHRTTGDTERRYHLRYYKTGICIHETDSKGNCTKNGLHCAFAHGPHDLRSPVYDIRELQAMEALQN

B1: chr8:48874918:48874919:+_ENSG00000104738_ENST00000523944|hu_hu|FALSE|FALSE (ssRNA)
RNA: GGGAGUUCUACAGUCCGACGAUCAUUUACAUCUGUUCCCCAGAUCACAAGUUUUUGGCCUAGAGACUGCUCACUUGCCACUAUAUCUUCUGCUGCUGCCCCGUCAGACUGCAGAUCCACUUGCAGGCCCUUCUGUGCAGAGCCCAACAGAGGAUUGAGCAUCA
B2: chr2:198351390:198351391:-_ENSG00000144381_ENST00000345042|hu_hu|hu_hu_hu_mus_False|1_88 (ssRNA)
RNA: GGGAGUUCUACAGUCCGACGAUCUCAUUCCCACCCUCCACAGAAAGGCUGCUUAACAACUCUCAUGUGGUGACACAGCGCUACAGUCCUGAUGCUCACAGAACAGUAGAGAUGCCUCAGUGAUUUAAGUUGAAAGCAGCAGUACAACAGAGGAUUGAGCAUCA
B3: 21183937_21186944_3650_CDS_ENSG00000075151_ENST00000400422|human|control|control (ssRNA)
RNA: GGGAGUUCUACAGUCCGACGAUCGUUCUUGGCCCCUUGUACAGUGUUCCACCCACCUUCGUCCACUCUCUGGACACCUGGUCUUCUCUUCUCUUUGGUCAUGAGUUGCUGGACCUUCCUUUGCUCUUCUUGUUCUUCUAUUUUCAACAGAGGAUUGAGCAUCA
B4: chr10:44834900:44834901:+_ENSMUSG00000019849_ENSMUST00000099858|mus_mus|motif|central (ssRNA)
RNA: GGGAGUUCUACAGUCCGACGAUCGAAUGUGAACACUGUGCCCUCGUUGGUUACGUAGUCGUAUUCUCCUUCAAAGUUGUCGGUCAGUUUUACCCACUUCAGGAUUCCGGUGAUACCAUUGGGUUCUUGCUGGAGGUCACAGUACAACAGAGGAUUGAGCAUCA
B5: chr10:33190432:33190433:-_ENSG00000150093_ENST00000302278|hu_mus|hu_hu_hu_mus_True|18_88 (ssRNA)
RNA: GGGAGUUCUACAGUCCGACGAUCUACAUUUUCCAAACCUGCAUGUGAGUAAAACCAUGGCCACAGAGCCCCAAAACUACCCUACUGUGACUAAGAUGCUGCUGCUGUGAGCUUGGUUGUUGUGGGACCGCCUGAGUAGGAUUCCAACAGAGGAUUGAGCAUCA
B6: chr9:72849539:72849540:+_ENSMUSG00000034563_ENSMUST00000085350|mus_mus|FALSE|FALSE (ssRNA)
RNA: GGGAGUUCUACAGUCCGACGAUCGUUCCCCAUUUCUUCCAGCUUAGGUGGUUCAAGUGUAACAAUAUCCGAAUCGUCACUAGUAGUUCCGAAAUAGACAUUGUCUUCAGGGGAAGGUGCUUCCUCCACCUCAGCUGCUGACUUCAACAGAGGAUUGAGCAUCA
B7: chr8:86465610:86465611:+_ENSMUSG00000013033_ENSMUST00000141158|mus_mus|FALSE|FALSE (ssRNA)
RNA: GGGAGUUCUACAGUCCGACGAUCUUGAGAAUGAGAGGAACACAGAGACAGCAAAAAAGGACACAACGGAAAGUUGAAUAGCUAGGAAAACUCAAAAGAAAAAGACCUAGAGAAAAAGAAUGAGCAAGAUUCAGGAGCAAAUGACAACAGAGGAUUGAGCAUCA
B8: chr7:141356670:141356671:-_ENSG00000257093_ENST00000536163|hu_mus|FALSE|FALSE (ssRNA)
RNA: GGGAGUUCUACAGUCCGACGAUCUAUAUACAGAUAUGAUAUACACAGGUGUUAACUUGUACCACAGAAAGAAUCAAUUCAAGAAACAUUUACACUUAGCCUUGGGGUUAAGCCCACCUUCCUUCAGGUCUGUAAAUAAUACUCCAACAGAGGAUUGAGCAUCA
B9: chr12:39763582:39763583:-_ENSG00000139116_ENST00000544797|hu_mus|hu_hu_hu_mus_False|48_78 (ssRNA)
RNA: GGGAGUUCUACAGUCCGACGAUCCUCUAGGAACUGGGCAUUCACUUUGAAUUCAGGAGCAGGAAGCCCGUUUUUAAUCGCUGAGGUUUUUUUUUCUUCAAUACUCUUGAACAGGUGUCUAACAGCACGAGAGAUGAUGCCCUGCAACAGAGGAUUGAGCAUCA
B10: chr12:39756943:39756944:-_ENSG00000139116_ENST00000544797|hu_mus|hu_hu_hu_mus_False|58_78 (ssRNA)
RNA: GGGAGUUCUACAGUCCGACGAUCGGUUUGGCUGUUACCCCCAAGGGAAUCCUGCAAUAGUCUUGUUAGCUUAGAGUCUCUAUAGGGGACAUGGGUGGCUCUCUUGCUCUUGUCCCCCAAGGCGCUGAUUACAUUCCCAAGAGCCAACAGAGGAUUGAGCAUCA
B11: chr9:87430539:87430540:+_ENSG00000148053_ENST00000359847|hu_hu|FALSE|FALSE (ssRNA)
RNA: GGGAGUUCUACAGUCCGACGAUCAAAAUGAUUGAAUUCAGCAAGUACAUUUAUGAUCUAUCUACAUUGUUAAAACAGCACUAAAAAUAAAAAUUUUUAAAAUGAUUAUCCAUUAUUUACAGAAAAUGUGGAAAAGAUGGCUUUCAACAGAGGAUUGAGCAUCA
B12: chr2:120151847:120151848:-_ENSMUSG00000027291_ENSMUST00000028752|mus_hu|FALSE|FALSE (ssRNA)
RNA: GGGAGUUCUACAGUCCGACGAUCCUUGGAUUUGAUGGUGGGAGUGCCUUCCAUGAGCGGUGAGGUGCUUGACUGGUGAUCAGAGUCAUUCAGCUUCUUUACCAAUUGACUUCGUUUCUGUGUCAGGUAGUCAAUCAGAGCUAACAACAGAGGAUUGAGCAUCA
B13: chrX:153993181:153993182:+_ENSG00000130826_ENST00000369550|hu_hu|FALSE|FALSE (ssRNA)
RNA: GGGAGUUCUACAGUCCGACGAUCUACAUCUUCUUCUGGCAAUGACUUCCGCUCCUUUUUCUUCUUAUGUUUCUUUGGCAAAAUAAUUACUUCCGCAUCCGCCAUGUUACCCUGCACCGCGUGCGUGCCGCCCGGUCCACAGCCCAACAGAGGAUUGAGCAUCA
B14: 179090825_179090945_696_CDS_ENSG00000143322_ENST00000408940|human|control|control (ssRNA)
RNA: GGGAGUUCUACAGUCCGACGAUCAAUAUCUGUUCGCUCCAUUUCCCAUUUGUCGUGGAUGGGGGACACACCAUAGACUGUAGGCUUAUUACACUUGGGUGCUGGGUAGUGUAAUGUUGUCACCAGCCCAUCAGCCACUGUGGACAACAGAGGAUUGAGCAUCA
B15: chr2:152857951:152857952:+_ENSMUSG00000042631_ENSMUST00000037235|mus_hu|FALSE|FALSE (ssRNA)
RNA: GGGAGUUCUACAGUCCGACGAUCUUGAUUCUGCAGGUAGUAGGAGGCCGCCAGCCACAGGUCCGUGGCACCGUCGGAGAAGAACACGAGCAGCGCGCACAGCACCCAGCAGCAGUCCCGCAGCUCGUAGCGCGGCCCCGGGCCCAACAGAGGAUUGAGCAUCA
B16: chr1:152005216:152005217:-_ENSG00000163191_ENST00000271638|perfect_dup|FALSE|FALSE (ssRNA)
RNA: GGGAGUUCUACAGUCCGACGAUCAGAGGAUUAGAUUCGCUUCUGGGAAGUUUGGAUGAAAGAAUCAUGGCACGCUAUAGCUAAGCCACCAAUGAGGUUGAGAAACUCUUGGAAAUCUAGCUGCCCGUCACAGUUGAGGUCCAGCAACAGAGGAUUGAGCAUCA
B17: chr12:36742118:36742119:-_ENSMUSG00000020577_ENSMUST00000020896|mus_mus|FALSE|FALSE (ssRNA)
RNA: GGGAGUUCUACAGUCCGACGAUCACCACUGAGGGCCAGGGAAUAUGGGGAACUUCGAUUGCUUUUUUAGCAAUGGAAAGAAAAAAAAAAUGUCUGGAGAAACUUAAGAGUAAAAUUUUUAAUUCCAUCGUUGACAUAAUGUGGCAACAGAGGAUUGAGCAUCA
B18: chr5:74677807:74677808:-_ENSG00000113163_ENST00000380494|hu_mus|FALSE|FALSE (ssRNA)
RNA: GGGAGUUCUACAGUCCGACGAUCACGGACACAUCGAUUGUUCAGAGGAGCACUAUCAUGAUCCACAGAAAAAUUACAAACUAUCCAAGUUUCAGGAUCAUUUUCAGUCAAGGCUGGGAUCUUUCGAAUAGCAGAAAGAUACAGCAACAGAGGAUUGAGCAUCA
B19: chr4:140556289:140556290:+_ENSMUSG00000036622_ENSMUST00000037055|mus_mus|mus_mus_mus_hu_False|1_78 (ssRNA)
RNA: GGGAGUUCUACAGUCCGACGAUCGAUGGAGCUCACCAGGCCCCCUUUUGCCGUGCAGAACCCUGUCCGGGUCACCACUGCCAGGACGUGCGGUCCCACAUAGGCCCGGGCCUGCAAGAUGAGGGUCCCGCAGAAGAGGGUGUGCAACAGAGGAUUGAGCAUCA
B20: chrX:161375010:161375011:-_ENSMUSG00000061778_ENSMUST00000112247|mus_hu|FALSE|FALSE (ssRNA)
RNA: GGGAGUUCUACAGUCCGACGAUCCAGCUGGAGGUGGCAAACUGAAACAGAAAAGCCCAAAUUAAGACAAAGUAGCACACCAGUGUCCUUUUAAGGUUUUAUUUCCUAGGCCAAUUUUGAAGGAACUGUUAUAUCAUUCUUCAUCAACAGAGGAUUGAGCAUCA
B21: chr7:149068622:149068623:-_ENSMUSG00000025139_ENSMUST00000001950|mus_hu|mus_mus_mus_hu_False|1_108 (ssRNA)
RNA: GGGAGUUCUACAGUCCGACGAUCGUGCAGGUACUGAGUGUGGCUUGUGGUCUGUCCUGGGUUAGAGUUGUUAAUAUCACGGAACAUACCAUCUAGAACGUUCCAGUCCCGCCUGACACCUUCAUUCCCAAUGGAGAAUCUGCUCAACAGAGGAUUGAGCAUCA
B22: chr2:78753848:78753849:+_ENSMUSG00000027011_ENSMUST00000028398|mus_hu|motif|central (ssRNA)
RNA: GGGAGUUCUACAGUCCGACGAUCGUUAUCUCCUUUAGGCCCAGCACUGCAAUUAGGAGGAGGAUCAAGGGUUAUUUCAGCGGGCUCCUUCUGAAUUCUUUUAGCACUAGUGGAUAACUUAGCAGUGGUUUUGCUAGAGAGUUUCAACAGAGGAUUGAGCAUCA

Target: T1, UNK ZnF1-3
Assay: nsRBNS (natural sequence RNA bind-n-seq); RBNS binding buffer (assumed for nsRBNS): 25 mM Tris pH 7.5, 150 mM KCl, 3 mM MgCl2, 0.01% Triton X-100, 500 ug/ml BSA, 20 U/ml SUPERase-In, 4 C; UNK is unkempt and MSI1 is Musashi-1; names of the RNAs are library labels; protein concentration not given here; high values mean tight binding

Binder	binding signal
B1	0.735 enrichment R
B2	0.953 enrichment R
B3	0.315 enrichment R
B4	0.567 enrichment R
B5	1.03 enrichment R
B6	0.538 enrichment R
B7	2.62 enrichment R
B8	1.31 enrichment R
B9	1.3 enrichment R
B10	0.715 enrichment R
B11	1.44 enrichment R
B12	0.499 enrichment R
B13	0.781 enrichment R
B14	0.664 enrichment R
B15	0.874 enrichment R
B16	1.57 enrichment R
B17	1.14 enrichment R
B18	1.13 enrichment R
B19	0.38 enrichment R
B20	1.63 enrichment R
B21	0.745 enrichment R
B22	1.35 enrichment R

— article PMC12136788
